Out of some 230,000 compounds screened, about 1,500 (0.65%) were called active. This list was built around the results that the source calls inconclusive (neither active nor inactive); the mix of calls is not that of the screen. The call rests on the fitted dose curve; in most records, active means well fitted inhibition curve with a large enough effect; inconclusive means small, poorly fitted or top-dose-only effect; inactive means no such curve, though single readings can be large or run the other way. Where the call is inconclusive, the potency comes from a doubtful curve fit.
The compounds below were run against Lethal(3)malignant brain tumor-like protein 1 (Homo sapiens) (UniProt Q9Y468) (assay: qHTS Assay for the Inhibitors of L3MBTL1). Conditions: AlphaScreen L3MBTL1–H3K9me1 peptide binding; activity, negative = inhibition: at 57.1 µM (top of the series).
Method in brief: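 Displacement of a biotinylated histone H3(1-15) peptide monomethylated at Lys9 (75 nM) from L3MBTL1 (50 nM) was measured by AlphaScreen after a 30 min room-temperature compound incubation; cefsulodin titration served as intraplate control.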
Further: nearly all actives have a fitted effect of over 60% in size.
On the % scale 0 is the no-effect control and ±100 the full control effect; potency means the concentration at half of the fitted maximal effect; tags describe the fitted curve by direction and shape.

Sequence of UniProt Q9Y468 (Q9Y468 whole entry, looked up): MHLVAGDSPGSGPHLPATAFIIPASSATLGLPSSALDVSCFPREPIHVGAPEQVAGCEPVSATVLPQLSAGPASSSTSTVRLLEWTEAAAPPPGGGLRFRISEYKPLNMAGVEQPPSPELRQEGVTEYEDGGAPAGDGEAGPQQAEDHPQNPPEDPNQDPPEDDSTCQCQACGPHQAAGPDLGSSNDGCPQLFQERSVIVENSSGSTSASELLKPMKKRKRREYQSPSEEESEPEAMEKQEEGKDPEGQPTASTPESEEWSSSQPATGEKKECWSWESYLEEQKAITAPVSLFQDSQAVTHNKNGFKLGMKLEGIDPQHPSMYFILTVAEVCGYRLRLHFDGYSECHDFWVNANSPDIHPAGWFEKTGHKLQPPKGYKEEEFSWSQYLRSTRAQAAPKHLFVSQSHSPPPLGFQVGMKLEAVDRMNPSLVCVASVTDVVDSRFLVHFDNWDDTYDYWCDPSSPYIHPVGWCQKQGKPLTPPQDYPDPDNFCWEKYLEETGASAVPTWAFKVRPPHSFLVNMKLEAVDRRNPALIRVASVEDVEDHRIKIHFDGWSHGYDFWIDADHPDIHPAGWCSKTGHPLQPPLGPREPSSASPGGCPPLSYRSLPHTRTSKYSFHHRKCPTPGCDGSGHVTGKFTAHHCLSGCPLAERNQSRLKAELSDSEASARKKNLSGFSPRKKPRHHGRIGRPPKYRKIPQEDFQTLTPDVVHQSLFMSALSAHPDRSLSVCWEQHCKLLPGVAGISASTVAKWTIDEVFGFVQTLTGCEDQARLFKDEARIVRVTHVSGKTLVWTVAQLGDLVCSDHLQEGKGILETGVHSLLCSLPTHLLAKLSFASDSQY

Row | SMILES | Potency | activity, negative = inhibition
1 | O=C(COC(=O)c1c2c(nc3ccccc13)CCCC2)Nc1ccc2c(c1)OCO2 | inconclusive: 31.6 µM [inhibitor, single point] | –
2 | CCOC(=O)Cn1c(=O)n(C2CCCC2)c(=O)c2ccccc21 | inconclusive: 5.62 µM [inhibitor, single point] | –
3 | Cn1nc(C(=O)NC2CCCCC2)c2c1-c1ccccc1SC2 | inconclusive: 35.5 µM [inhibitor, single point] | –
4 | CCOc1ccc(N/C=C/C(=O)c2ccc3ccccc3c2)c([N+](=O)[O-])c1 | inconclusive: 3.16 µM [inhibitor, single point] | –
5 | N#CC1=C(S)N(c2ccccc2)C(c2ccco2)NC1=O (stereo unspecified) | inconclusive: 7.08 µM [inhibitor, single point] | –
6 | CCNC(=S)N(Cc1cc2c(C)ccc(C)c2[nH]c1=O)C1CCCC1 | inconclusive: 25.1 µM [inhibitor, single point] | –
7 | COC(=O)c1cc(O)c(O)c(O)c1 | inconclusive: 39.8 µM [inhibitor, single point] | –
8 | C=CCn1c(SCC(=O)NCC2CCCO2)nc2scc(-c3ccco3)c2c1=O (stereo unspecified) | inconclusive: 31.6 µM [inhibitor, single point] | –
9 | COc1cc(N/N=C/c2ccccc2O)ncn1 | inconclusive: 17.8 µM [inhibitor, partial curve] | –
10 | COc1cc(NC(=O)CN2CCN(c3ccccc3O)CC2)c(C)cc1[N+](=O)[O-] | inactive | –
11 | Cc1scc2c1N(C(=O)CN1CCN(C)CC1)c1ccccc1NC2=O | inconclusive: 0.0891 µM [inhibitor, full curve, poor fit] | –
12 | O=S(=O)(c1ccc(Cl)cc1)N1CCN(Cc2ccc(O)c3ncccc23)CC1 | inconclusive: 31.6 µM [inhibitor, single point] | –
13 | COc1cc([N+](=O)[O-])cc(/C=N/NC(=O)c2cc(C)nc3ccccc23)c1O | inconclusive: 39.8 µM [inhibitor, single point] | –
14 | Cc1ccccc1-n1c(SCC(=O)N2CCCC2)nnc1-c1ccccn1 | inconclusive: 39.8 µM [inhibitor, single point] | –
15 | O=C(COC(=O)C1CC(=O)N(Cc2ccco2)C1)Nc1ccccc1[N+](=O)[O-] (stereo unspecified) | inactive | –
16 | CCNc1nc(NCC)nc(OCCOC(C)=O)n1 | inconclusive: 3.98 µM [inhibitor, single point] | –
17 | Cc1nnc(NC(=O)CCSCCC(=O)Nc2nnc(C)s2)s1 | inconclusive: 28.2 µM [inhibitor, single point] | –
18 | COc1ccc(S(=O)(=O)CCC(=O)Nc2ccc(OC)cc2OC)cc1 | inconclusive: 39.8 µM [inhibitor, single point] | –
19 | COc1ccc(N2CCN(CCCNS(=O)(=O)c3c(C)noc3/C=C/N(C)C)CC2)cc1 | inconclusive: 31.6 µM [inhibitor, partial curve] | –
20 | Cc1ccc(C)c(S(=O)(=O)Nc2cc(SCC(=O)O)c(O)c3ccccc23)c1 | inconclusive: 22.4 µM [inhibitor, partial curve] | –
21 | CC1CC(C)CN(C(=O)COC(=O)c2c[nH]c3ccccc23)C1 (stereo unspecified) | inconclusive: 0.112 µM [inhibitor, partial curve, poor fit] | –

Row | SMILES | Potency | activity, negative = inhibition
22 | CCOc1ccc(C2=NNC(c3cccs3)=Nc3ccc(OC)cc32)cc1OCC | inconclusive: 4.47 µM [inhibitor, full curve] | –
23 | COc1ccccc1N1CCN(c2ncnc3nc[nH]c23)CC1 | inconclusive: 0.708 µM [inhibitor, partial curve, poor fit] | –
24 | CCOc1ccccc1NC(=O)C(NCC1CCCCC1)c1ccccc1 (stereo unspecified) | inactive | –
25 | COc1cc(Cl)c(C)cc1NC(=O)COC(=O)C1=NN(c2ccccc2)C(=O)CC1 | inconclusive: 39.8 µM [inhibitor, single point] | –
26 | COc1cc(/C=C/C(=O)O)cc(S(=O)(=O)Nc2ccc3c(c2)OCO3)c1OC | inactive | –
27 | Cc1ccc(S(=O)(=O)c2cc(Nc3ccccc3)ccc2O)cc1 | inconclusive: 35.5 µM [inhibitor, single point] | –
28 | Cc1cccc(Oc2nc(-c3ccccn3)nc3ccccc23)c1 | inconclusive: 1.12 µM [inhibitor, full curve, poor fit] | –
29 | CC(C)C[C@H](NC(=O)NCc1ccc(Cl)cc1)C(=O)O | inactive | –
30 | CCCn1c(CCC(=O)O)ccc1-c1cccs1 | inactive | –
31 | CSC(=S)N/N=C(\C)c1ccc(Br)cc1 | inconclusive: 35.5 µM [inhibitor, single point] | –
32 | CC(=O)NC(c1cccs1)c1cc([N+](=O)[O-])c2cccnc2c1O (stereo unspecified) | active: 10 µM | –
33 | CCc1ccc(N2C(=O)CN(CC(=O)OC)C2=S)cc1 | inconclusive: 39.8 µM [inhibitor, single point] | –
34 | CC(C)CNC(=O)CC(=O)N/N=C/c1ccc(Br)cc1 | inconclusive: 31.6 µM [inhibitor, single point] | –
35 | C/C(=N\N=c1/scc(C)n1Cc1ccco1)c1cccc([N+](=O)[O-])c1 | inconclusive: 39.8 µM [inhibitor, single point] | –
36 | O=C(NNC(=S)NC(=O)c1ccccc1)c1ccc([N+](=O)[O-])cc1 | – | inactive: -6.95% [at 2.29 µM]
37 | Cc1[nH]c2ccccc2c1C(=O)CN1CCCCC1C (stereo unspecified) | inconclusive: 0.398 µM [inhibitor, full curve] | –
38 | NCCc1c(-c2ccccc2)n(-c2ccccc2)c2ccccc12 | inconclusive: 17.8 µM [inhibitor, partial curve] | –
39 | CC1=C(C#N)C(=O)NC(=O)/C1=C/c1ccc(-c2ccc(S(N)(=O)=O)cc2)o1 | inconclusive: 31.6 µM [inhibitor, single point] | –
40 | COc1ccc(CC(=O)OCC(=O)Nc2cc(S(=O)(=O)N3CCOCC3)ccc2N2CCCC2)cc1 | inconclusive: 0.562 µM [inhibitor, full curve] | –
41 | CCN(C[C@H]1N[C@@](Cc2ccccc2)(C(=O)OC)[C@H]2C(=O)N(C)C(=O)[C@@H]12)C(=O)c1ccc(C(C)(C)C)cc1 | inconclusive: 39.8 µM [inhibitor, single point] | –
